In all, about 310,000 compounds went through this assay and about 14,000 (4.5%) showed an effect of 50% or more. Effects have a minus sign here. The list shows a part of the results.
Biological target: human ether-à-go-go-related gene (hERG) potassium channel (human, UniProt Q12809)
Experiment: primary screen, population patch clamp on CHO cells stably expressing hERG
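Further: peak tail current of the secondary pulse compared with the same well before compound.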

human ether-à-go-go-related gene (hERG) potassium channel, sequence (Q12809 whole entry, looked up): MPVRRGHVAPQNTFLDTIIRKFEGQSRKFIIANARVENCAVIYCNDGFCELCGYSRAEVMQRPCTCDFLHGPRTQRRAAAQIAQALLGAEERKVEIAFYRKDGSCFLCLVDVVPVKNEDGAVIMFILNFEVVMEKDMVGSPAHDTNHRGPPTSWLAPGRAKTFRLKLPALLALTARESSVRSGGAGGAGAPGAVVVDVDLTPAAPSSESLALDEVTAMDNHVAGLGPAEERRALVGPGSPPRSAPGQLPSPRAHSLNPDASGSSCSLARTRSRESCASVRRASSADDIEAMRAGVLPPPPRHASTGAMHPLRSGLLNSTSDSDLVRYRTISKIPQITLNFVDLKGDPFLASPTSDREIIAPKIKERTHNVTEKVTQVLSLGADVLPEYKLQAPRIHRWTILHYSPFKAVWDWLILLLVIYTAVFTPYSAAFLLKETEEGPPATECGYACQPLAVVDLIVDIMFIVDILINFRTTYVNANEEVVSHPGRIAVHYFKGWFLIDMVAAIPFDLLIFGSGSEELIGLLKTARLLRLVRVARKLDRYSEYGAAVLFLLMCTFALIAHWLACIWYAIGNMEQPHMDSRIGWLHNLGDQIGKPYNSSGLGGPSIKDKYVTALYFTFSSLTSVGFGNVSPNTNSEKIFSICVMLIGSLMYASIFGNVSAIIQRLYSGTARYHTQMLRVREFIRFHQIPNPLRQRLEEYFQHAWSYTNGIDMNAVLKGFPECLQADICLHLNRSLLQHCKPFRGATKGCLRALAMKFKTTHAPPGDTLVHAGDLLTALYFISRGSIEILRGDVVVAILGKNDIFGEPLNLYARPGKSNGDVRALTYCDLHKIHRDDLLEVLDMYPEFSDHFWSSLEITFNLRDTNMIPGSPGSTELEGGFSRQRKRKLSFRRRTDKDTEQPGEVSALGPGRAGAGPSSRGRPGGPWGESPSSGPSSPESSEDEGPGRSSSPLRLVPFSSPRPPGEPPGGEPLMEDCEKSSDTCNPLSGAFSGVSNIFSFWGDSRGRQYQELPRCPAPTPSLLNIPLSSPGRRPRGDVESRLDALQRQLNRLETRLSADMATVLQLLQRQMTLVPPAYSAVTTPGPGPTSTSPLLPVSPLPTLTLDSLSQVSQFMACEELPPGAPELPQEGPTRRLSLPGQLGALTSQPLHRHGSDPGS

**Q.** How did the “hERG current change (%, negative = inhibition) at 10uM” value turn out when `COc1ccc(/C(O)=C2\C(=O)C(=O)N(CCN(C)C)C2c2cc(OC)c(OC)c(OC)c2)c(C)c1` (centres unmarked) was run?
**A.** 3.79%

**Q.** For `Cl.O=C(NCCCN1CCOCC1)c1ccc(Cl)c(S(=O)(=O)N2CCCCCC2)c1`, which “hERG current change (%, negative = inhibition) at 10uM” value is on record?
**A.** -50.6%

**Q.** For `C=COCCNC(=S)Nc1ccccc1`, which “hERG current change (%, negative = inhibition) at 10uM” value is on record?
**A.** 9.6%

**Q.** Which “hERG current change (%, negative = inhibition) at 10uM” value does the source give for `CS(=O)(=O)NCc1ccc(C(=O)NCc2ccccc2)cc1` here?
**A.** -8.76%

**Q.** Which “hERG current change (%, negative = inhibition) at 10uM” value does the source give for `O=C(NCc1ccc2c(c1)OCO2)C(=O)NCC1CCCO1` (centres unmarked) here?
**A.** 15.2%

**Q.** With `Cc1cccc(NS(=O)(=O)c2cccs2)c1` as the molecule, how does the “hERG current change (%, negative = inhibition) at 10uM” value read?
**A.** 8.96%

**Q.** For `Nc1cc(C(=O)OCC(=O)N2CCC(Cc3ccccc3)CC2)ccc1Cl`, which “hERG current change (%, negative = inhibition) at 10uM” value is on record?
**A.** -12%

**Q.** Which “hERG current change (%, negative = inhibition) at 10uM” value does the source give for `COC(=O)C1=C(C)Nc2ncnn2C1c1ccc(OC(=O)c2ccccc2)cc1` (centres unmarked) here?
**A.** 2.21%

**Q.** For `COCCN(Cc1nnc(-c2cccs2)o1)C(=O)c1cccc(S(=O)(=O)N2CCOCC2)c1`, which “hERG current change (%, negative = inhibition) at 10uM” value is on record?
**A.** -18%

**Q.** Which “hERG current change (%, negative = inhibition) at 10uM” value does the source give for `CC(NC(=O)COC(=O)C1CCN(c2ccc(C(F)(F)F)cn2)CC1)c1ccc(F)cc1` (centres unmarked) here?
**A.** 6.31%

**Q.** With `O=C(Nc1nnc(SCC(=O)N2CCOCC2)s1)C1CC(=O)N(c2ccccc2)C1` (centres unmarked) as the molecule, how does the “hERG current change (%, negative = inhibition) at 10uM” value read?
**A.** 26.7%

**Q.** How did the “hERG current change (%, negative = inhibition) at 10uM” value turn out when `Cc1noc(NS(=O)(=O)c2ccc(NC(=O)CC34CC5CC(CC(Br)(C5)C3)C4)cc2)c1C` was run?
**A.** 12.2%

**Q.** For `COC(=O)c1ccc(NC(=O)CN2CCN(CCO)CC2)cc1.Cl`, which “hERG current change (%, negative = inhibition) at 10uM” value is on record?
**A.** -5.29%

**Q.** How did the “hERG current change (%, negative = inhibition) at 10uM” value turn out when `CCCC(NS(=O)(=O)c1ccc(-c2ccc(=O)[nH]n2)s1)c1cccs1` (centres unmarked) was run?
**A.** -13%

**Q.** For `FC(F)(F)c1cccc(N2CCN(C(=S)NC3CCCC3)CC2)c1`, which “hERG current change (%, negative = inhibition) at 10uM” value is on record?
**A.** 11.4%

**Q.** Which “hERG current change (%, negative = inhibition) at 10uM” value does the source give for `COc1ccc(-c2nc3ccccn3c2/N=C/c2ccc(OC)c(OC)c2)cc1O` here?
**A.** -24.1%

**Q.** For `O=c1c2ccccc2nc(/C=C/c2ccc3c(c2)OCO3)n1-c1ccccc1`, which “hERG current change (%, negative = inhibition) at 10uM” value is on record?
**A.** -26%

**Q.** Which “hERG current change (%, negative = inhibition) at 10uM” value does the source give for `Cl.NCc1cc2c3c(c1)CCCN3CCC2` here?
**A.** 22.3%

**Q.** With `CCOc1ccc(NCc2nc3ccccc3n2CCOc2ccccc2)cc1` as the molecule, how does the “hERG current change (%, negative = inhibition) at 10uM” value read?
**A.** -11.6%

**Q.** Which “hERG current change (%, negative = inhibition) at 10uM” value does the source give for `CC(C)(C)C(=O)Nc1cc2c3c(c1)CCN3C(=O)CC2` here?
**A.** 10.6%

**Q.** `CCOC(=O)N1CCC(NC(=O)c2cccnc2SC)CC1` was tested. Which “hERG current change (%, negative = inhibition) at 10uM” value did it give?
**A.** 22%

**Q.** Which “hERG current change (%, negative = inhibition) at 10uM” value does the source give for `COCCNC(=O)CSc1nc2cc3c(cc2c(=O)n1Cc1ccco1)OCO3` here?
**A.** -27.4%

**Q.** How did the “hERG current change (%, negative = inhibition) at 10uM” value turn out when `Nc1ccccc1S(=O)(=O)c1ccccc1N` was run?
**A.** 16.2%

**Q.** How did the “hERG current change (%, negative = inhibition) at 10uM” value turn out when `O=[N+]([O-])c1cc([N+](=O)[O-])c(Oc2cc(F)cc(F)c2)cc1NN1CCCCC1` was run?
**A.** 24.3%

**Q.** `CCOc1ccc(S(=O)(=O)N(CC(=O)Nc2cc(C)on2)Cc2ccccc2Cl)cc1` was tested. Which “hERG current change (%, negative = inhibition) at 10uM” value did it give?
**A.** -2.63%

**Q.** For `O=C(CS(=O)Cc1ccccc1Cl)Nc1ccccc1Cl` (centres unmarked), which “hERG current change (%, negative = inhibition) at 10uM” value is on record?
**A.** 23.9%

**Q.** How did the “hERG current change (%, negative = inhibition) at 10uM” value turn out when `Cn1ncc2c(O/N=C(\N)c3ccc(C(C)(C)C)cc3)ncnc21` was run?
**A.** 0.167%

**Q.** With `O=C(NC(N1CCOCC1)C(Cl)(Cl)Cl)c1ccc(F)cc1` (centres unmarked) as the molecule, how does the “hERG current change (%, negative = inhibition) at 10uM” value read?
**A.** 6.59%

**Q.** `Cc1cccc(NC(=O)c2ccc(NS(=O)(=O)c3c(C)noc3C)cc2)c1` was tested. Which “hERG current change (%, negative = inhibition) at 10uM” value did it give?
**A.** -36.8%

**Q.** Which “hERG current change (%, negative = inhibition) at 10uM” value does the source give for `COc1ccccc1CCN=C(N)NS(=O)(=O)c1ccccc1F` here?
**A.** -7.73%

**Q.** Which “hERG current change (%, negative = inhibition) at 10uM” value does the source give for `Nc1nonc1-n1nnc(C(=O)N/N=C/c2ccc(Br)cc2)c1CN1CCOCC1` here?
**A.** -21%

**Q.** How did the “hERG current change (%, negative = inhibition) at 10uM” value turn out when `COc1ccc(C=O)cc1Cn1cnc2c(cnn2C)c1=O` was run?
**A.** 12.3%

**Q.** With `Cc1nn(CC(=O)N2CCOCC2)c(C)c1[N+](=O)[O-]` as the molecule, how does the “hERG current change (%, negative = inhibition) at 10uM” value read?
**A.** 7.23%

**Q.** With `Cc1nc2c(Cl)c(C)nn2c2c1CCC2` as the molecule, how does the “hERG current change (%, negative = inhibition) at 10uM” value read?
**A.** 2.55%

**Q.** How did the “hERG current change (%, negative = inhibition) at 10uM” value turn out when `CC(C(=O)N1CCCCCC1)c1ccc([N+](=O)[O-])cc1` (centres unmarked) was run?
**A.** -25.8%

**Q.** For `CCCCCCOc1ccc(/C(C)=N/NC2=NCCN2)cc1[N+](=O)[O-]`, which “hERG current change (%, negative = inhibition) at 10uM” value is on record?
**A.** -81.3%

**Q.** Which “hERG current change (%, negative = inhibition) at 10uM” value does the source give for `Cc1c(NC(=O)Nc2ccc(Cl)cc2Cl)c(=O)n(-c2ccccc2)n1C` here?
**A.** 1.09%

**Q.** Which “hERG current change (%, negative = inhibition) at 10uM” value does the source give for `CCOC(=O)c1[nH]c2ccccc2c1NC(=O)C1CCCCC1` here?
**A.** 20.9%

**Q.** With `CCCN(CCC)Cc1cc(=O)oc2cc3c(cc12)CCC3` as the molecule, how does the “hERG current change (%, negative = inhibition) at 10uM” value read?
**A.** -9.37%

**Q.** Which “hERG current change (%, negative = inhibition) at 10uM” value does the source give for `O=C(Nc1cc(C(F)(F)F)ccc1N1CCOCC1)c1cccnc1Cl` here?
**A.** -4.26%

**Q.** Which “hERG current change (%, negative = inhibition) at 10uM” value does the source give for `COc1cc(C=C2C(=O)c3ccccc3C2=O)ccc1O` here?
**A.** 6.54%

**Q.** For `CCCn1c(C(CO)Nc2nc(C)cs2)nc2ccccc21` (centres unmarked), which “hERG current change (%, negative = inhibition) at 10uM” value is on record?
**A.** -5.83%

**Q.** With `CCC(C)[C@H](NC(=O)[C@H](Cc1ccccc1)n1c(=O)[nH]c2ccccc2c1=O)C(=O)N1CCC[C@@H]1C(=O)O` (some centres unmarked) as the molecule, how does the “hERG current change (%, negative = inhibition) at 10uM” value read?
**A.** 12.8%

**Q.** How did the “hERG current change (%, negative = inhibition) at 10uM” value turn out when `C=CCn1c(-c2cc(-c3ccc(C)cc3)nc3ccccc23)n[nH]c1=S` was run?
**A.** 9.35%

**Q.** For `Cc1ccc(/C=N/NC(=O)c2ccccc2OCc2ccc(F)cc2)o1`, which “hERG current change (%, negative = inhibition) at 10uM” value is on record?
**A.** -15.4%

**Q.** For `O=C(NC1CCCCC1)C1CC(O)CN1C(=O)OCc1ccccc1` (centres unmarked), which “hERG current change (%, negative = inhibition) at 10uM” value is on record?
**A.** 4.62%

**Q.** `Cc1nc2ccc(Br)cc2c(=O)n1-c1ccc([N+](=O)[O-])c(C(F)(F)F)c1` was tested. Which “hERG current change (%, negative = inhibition) at 10uM” value did it give?
**A.** 6.86%

**Q.** For `CCCCOC(=O)n1c(SCC(=O)N(CC)CC)nc2ccccc21`, which “hERG current change (%, negative = inhibition) at 10uM” value is on record?
**A.** -34.7%

**Q.** Which “hERG current change (%, negative = inhibition) at 10uM” value does the source give for `Cc1ccc(C)c(S(=O)(=O)N2CCCC2CNC(=O)C(=O)NC2CCCCCC2)c1` (centres unmarked) here?
**A.** 7.56%

**Q.** With `Cc1ccc(-c2noc(CSc3nc(N)cc(N)n3)n2)cc1` as the molecule, how does the “hERG current change (%, negative = inhibition) at 10uM” value read?
**A.** -4.24%

**Q.** How did the “hERG current change (%, negative = inhibition) at 10uM” value turn out when `COc1ccc(C2/C=C\CN(S(=O)(=O)c3ccc(C)cc3)CC(=O)N2Cc2ccc(F)cc2)cc1` (centres unmarked) was run?
**A.** 1%

**Q.** For `O=C(CN(Cc1ccccc1)C(=O)CCC(=O)Nc1ccccn1)NCc1ccco1`, which “hERG current change (%, negative = inhibition) at 10uM” value is on record?
**A.** -9.23%

**Q.** How did the “hERG current change (%, negative = inhibition) at 10uM” value turn out when `CC(=O)C(Sc1ncnc2sc3c(c12)CCCC3)C(C)=O` was run?
**A.** 29.3%

**Q.** Which “hERG current change (%, negative = inhibition) at 10uM” value does the source give for `CSc1ccc(/C=N/NC(=O)C[n+]2ccccc2)cc1.[Cl-]` here?
**A.** -1.94%

**Q.** `Cc1nc(C)n(C(=O)N(c2ccccc2)c2ccccc2)n1` was tested. Which “hERG current change (%, negative = inhibition) at 10uM” value did it give?
**A.** 7.63%

**Q.** How did the “hERG current change (%, negative = inhibition) at 10uM” value turn out when `Cc1oc(-c2ccc(Cl)cc2)nc1CS(=O)CC(=O)NCCCN1CCN(Cc2ccccc2)CC1` (centres unmarked) was run?
**A.** -62.1%
